Measurements from PubChem BioAssay AID493208 (National Center for Advancing Translational Sciences (NCATS), 2011).
Out of some 44,000 compounds screened, about 340 (0.77%) were called active. Roughly 5% stayed inconclusive and do not appear here. Calls follow the shape of the dose curve; as a rule, active = well fitted inhibition curve with a large enough effect; inconclusive = small, poorly fitted or top-dose-only effect; inactive = flat fitted curve, though single readings scatter. This is one part of the list.

experiment: Acumen qHTS Assay for Inhibitors of the mTORC1 Signaling Pathway in MEF (Tsc2-/-, p53-/-) Cells: Sytravon; conditions: phospho-rpS6 immunofluorescence/PI, 24 h; series mostly up to 38.3 µM; activity change, negative = inhibition: at the top concentration; also: nearly all actives have a fitted effect of over 50% in size;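 as to activity change, negative = inhibition: plate controls were DMSO for no effect and rapamycin for full effect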
In short: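 Compounds act on Tsc2-/-, p53-/- fibroblasts carrying an empty vector for 24 h before fixation and dual staining for phospho-S6 and DNA (propidium iodide). Values are percentages of cells above a rapamycin-defined pS6/PI threshold.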
Potency is read from the fitted curve at half-maximal effect.

Row | Compound | activity change, negative = inhibition | Potency
1 | COc1ccc(NC(=O)C2=CC(c3ccco3)=NS(=O)(=O)N2C)cc1 | inactive: -4.94% | 
2 | COc1ccccc1N1CCN(c2ncnc3c2nnn3C)CC1 | inactive: -3.8% | 
3 | Cc1ccc(C)c(NC(=O)CN2CCSc3ccc(S(=O)(=O)N4CCCC4)cc32)c1 | inactive: -1.27% | 
4 | CC(C)c1ccc(S(=O)(=O)N2CCC(n3c(C(F)(F)F)nc4cccnc43)CC2)cc1 | inactive: 4.35% | 
5 | CCOC(=O)c1oc2ccc(S(=O)(=O)n3nc(-c4ccc(C)cc4)cc3N)cc2c1C | inactive: 2.05% | 
6 | COc1ccc(NC(=O)C2CCN(S(=O)(=O)c3cccc(-c4noc(C)n4)c3)CC2)cc1OC | inactive: -1.97% | 
7 | CC(C)c1ccc(CN(C(=O)c2cc3ccccc3oc2=O)C2CCS(=O)(=O)C2)cc1 (stereo unspecified) | inactive: 0.757% | 
8 | CCOCCn1ccc2c(OCC(=O)Nc3ccc(C(N)=O)cc3)cccc2c1=O | inactive: 0.613% | 
9 | CC(NC(=O)C1CCN(S(=O)(=O)Cc2ccccc2)CC1)c1ccccc1 (stereo unspecified) | inactive: -0.795% | 
10 | COc1cccc2sc(N(Cc3cccnc3)C(=O)c3ccc4c(c3)OCCO4)nc12 | inactive: 0.903% | 
11 | COc1ccc(C2NC(=O)N(C)C3=C2C(=O)N(c2ccc(Br)cc2)C3)cc1 (stereo unspecified) | inactive: -10.9% | 
12 | Cc1cc(S(=O)(=O)N2CCN(Cc3noc(CCC(=O)N4CCCCC4)n3)CC2)ccc1F | inactive: -3.2% | 
13 | CN(C)c1ccc(CNC(=O)C2CCN(c3nc4ccccc4[nH]3)CC2)cc1 | inactive: -0.348% | 
14 | COC(=O)c1cc2occc2n1Cc1nc(-c2ccccc2)oc1C | inactive: -10.6% | 
15 | CCOC(=O)CC(NC(=O)CCc1c(C)nc2c(-c3ccccc3)c(C)nn2c1C)c1ccc(OC(C)C)cc1 (stereo unspecified) | inactive: -5.56% | 
16 | COc1cc2c(-c3cccc(Cl)c3)nc3c(c(C)nn3-c3ccccc3)c2cc1OC | inactive: 2.39% | 
17 | COc1ccc(Cn2c(CCC(=O)NCc3ccc(Cl)cc3)nc3cccnc32)cc1 | inactive: -2.22% | 
18 | CCOC(=O)COc1ccc(C2C(C(=O)OC)=C(C)NC3=C2C(=O)c2ccccc23)cc1Cl (stereo unspecified) | inactive: -20.1% | 
19 | COc1cccc(CNC(=O)c2cnc3sc(N4CCCC4)nn3c2=O)c1OC | inactive: -4.59% | 
20 | CSc1ccc(CCNC(=O)NCc2noc3ccccc23)cc1 | inactive: -0.156% | 
21 | CCOC(=O)c1cc(S(=O)(=O)Nc2cc(OC)ccc2OC)[nH]n1 | inactive: 0% | 

Row | Compound | activity change, negative = inhibition | Potency
22 | Cc1ccc(C(=O)NCC(c2ccc3c(c2)OCO3)N2CCOCC2)cc1C (stereo unspecified) | inactive: 0.659% | 
23 | COc1ccc(CNc2nc(-c3ccco3)nn2S(=O)(=O)c2ccc(Cl)cc2)cc1OC | inactive: -6.76% | 
24 | COc1ccc(-c2c(C#N)c(SCC(=O)Nc3ccccc3C)nc(C)c2C(=O)Nc2ccc(Cl)cc2)cc1 | inactive: 7.42% | 
25 | COC(=O)c1c(NC(=O)CCCOc2cccc(C)c2)sc2c1CCC2 | inactive: -7.59% | 
26 | Cc1cc(O)c(C(c2cccc(F)c2)N2CCN(c3ccccc3)CC2)c(=O)n1Cc1ccco1 (stereo unspecified) | inactive: 3.62% | 
27 | Cc1cc(C)n(-c2nnc(Nc3ccc(C)c(C)c3)c3ccccc23)n1 | inactive: -17% | 
28 | COc1ccc(NC(=O)c2sc3nc4c(cc3c2N)CN(Cc2ccccc2)CC4)c(OC)c1 | inactive: -0.176% | 
29 | Cc1ccc(C)c(CN2C(=O)c3ccccc3S(=O)(=O)c3ccc(C(=O)OCC4CCCO4)cc32)c1 (stereo unspecified) | inactive: 6.55% | 
30 | COc1ccc(NC(=O)Cn2c(SCc3ccc(C)cc3)nc3cccnc32)cc1OC | inactive: -19.5% | 
31 | CCC(C)c1ccc2oc(-c3ccc(NC(=O)c4cc5ccccc5o4)cc3)nc2c1 (stereo unspecified) | inactive: -6.95% | 
32 | COc1ccc(C2c3cc(OC)c(OC)cc3CC(=O)N2c2ccc(C)cc2)cc1 (stereo unspecified) | inactive: -7.5% | 
33 | CCCC(=O)Nc1nnc(S(=O)(=O)N(C)Cc2ccc(Cl)cc2)s1 | inactive: -5.19% | 
34 | Cc1cccc(Cn2c(=O)n3nc(-c4ccccc4)nc3c3ccccc32)c1 | inactive: -11.1% | 
35 | CC(C)c1ccc(S(=O)(=O)c2nnn3c2nc(N2CCCC2)c2sccc23)cc1 | inactive: 5.57% | 
36 | Cn1c(=O)[nH]c2cc(-c3noc(-c4ccc(Br)cc4)n3)ccc21 | inactive: -7.85% | 
37 | COc1ccccc1Nc1nc(-c2ccccc2F)nc2ccccc12 | inactive: -1.31% | 
38 | Cc1cccc(-c2nn3c(=O)cc(CN4CCN(C(=O)/C=C/c5ccccc5)CC4)nc3s2)c1 | inactive: 0.131% | 
39 | COc1cc2c(C(=O)Nc3cc(OC)c(OC)c(OC)c3)cn(C)c(=O)c2cc1OC | inactive: 0.262% | 
40 | O=C(CC1N=C2c3ccccc3N=C(SCc3ccc(F)cc3)N2C1=O)NCc1ccc2c(c1)OCO2 (stereo unspecified) | inactive: 4.42% | 
41 | Cc1ccc(NC(=O)CSc2nnc3ccc4ccccc4n23)cc1 | inactive: -4.1% | 
42 | O=C(NCCN1CCN(c2cccc(Cl)c2)CC1)Nc1ccccc1 | inactive: 0.771% | 

Row | Compound | activity change, negative = inhibition | Potency
43 | CCc1ccc(NC(=O)c2ccc(-c3ccccc3)s2)cc1 | inactive: -2.4% | 
44 | Cc1cccc(C(=O)NCC(c2ccco2)S(=O)(=O)c2cccs2)c1 (stereo unspecified) | inactive: -5.63% | 
45 | CCOC(=O)C1CCN(c2ncnc3c2nc2n3CCCCC2)CC1 | inactive: 0.359% | 
46 | Cc1cccc(NC(=O)c2ccc(-c3ccccc3)s2)c1 | inactive: 0.201% | 
47 | CCc1cnc2c(c1SCC(=O)NCc1ccccc1Cl)c(=O)n(C)c(=O)n2C | inactive: -2.71% | 
48 | CCC(Oc1ccccc1)C(=O)Nc1nnc(S(=O)(=O)N(CC)CC)s1 (stereo unspecified) | inactive: -4.12% | 
49 | COc1cc2ccccc2cc1C(=O)Nc1cccc(-c2nc3cc(C)c(C)cc3o2)c1 | inactive: 5.68% | 
50 | Cc1ccccc1CNC(=O)c1cnc2sc(N3CCC(C)CC3)nn2c1=O | inactive: 9.67% | 
51 | CN(C(=O)CSc1nnc(NC(=O)Nc2ccccc2)s1)c1ccccc1 | inactive: -0.762% | 
52 | Cc1cc(C)c(NC(=O)C2CCN(c3nc4ccccc4n4cccc34)CC2)c(C)c1 |  | active: 14.7 µM
53 | Brc1cccc(-c2nnn3c2nc(NCc2ccc4c(c2)OCO4)c2ccccc23)c1 | inactive: -22.7% | 
54 | O=C(NCC(c1cccnc1)N1CCc2ccccc21)c1cccc(Br)c1 (stereo unspecified) | inactive: -10.5% | 
55 | COc1ccc(-n2ncc(C(=O)NCc3ccco3)c2C2CCN(C(=O)OC(C)(C)C)CC2)cc1 | inactive: -0.86% | 
56 | CC(C)NC(=O)C1CCC(Cn2c(=O)c3sccc3n(Cc3ccc(F)cc3)c2=O)CC1 (stereo unspecified) | inactive: -13.3% | 
57 | Cc1ccc(NC(=O)/C(C#N)=C/c2ccc(-c3ccc(Cl)c(C(=O)O)c3)o2)cc1C | inactive: 4.47% | 
58 | O=C1CS(=O)(=O)C2(C(=O)N(Cc3ccccc3Cl)c3ccccc32)N1c1ccc(F)cc1 (stereo unspecified) | inactive: 3.77% | 
59 | CC(C)(C)c1ccc(/C=C/C(=O)Nc2ccc(S(N)(=O)=O)cc2)cc1 | inactive: -18.5% | 
60 | CCCNC(=O)Cn1c(=O)n(CC2CCC(C(=O)NC)CC2)c(=O)c2sccc21 (stereo unspecified) | inactive: -3.17% | 
61 | CCN(CC)S(=O)(=O)c1ccc2c(c1)N(CC(=O)Nc1ccccc1F)C(=O)C1CCCN21 (stereo unspecified) | inactive: 0.312% | 
